Reference: article PMC12040169 (PLOS Biology, 2025)
This is one part of the list.

The molecules below were run on T1, C. trachomatis L2/434/Bu expressing GFP (CTL2-GFP). Conditions: total inclusion area; 28.5 h, 10 µM; inhibitor.
T1 construct: L2/434/Bu GFP intracellular growth in HeLa cells
Set-up: species or system HeLa; C. trachomatis total inclusion area by high-content imaging, normalised to DMSO
In short: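 High-content imaging followed the bulk GFP/resorufin measurement: fixed, Hoechst-stained cells were scored for GFP inclusions and host nuclei per well. Total inclusion area and count served as growth proxies, nuclei number as the viability proxy. MIC calculation matched the bulk assay.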

SMILES | % of control remaining
FC(F)(F)c1cccc(CC2CSC(=S)N2)c1 (stereo not drawn) [CBK022895] | 6.741
Cc1cc(C)n(-c2cccc(C(=O)NCCn3ccnc3)c2)n1 [CBK281585] | 81.7853
CC(C)(CN1CCCC1)NC(=O)N1CCN(Cc2cccc(O)c2)CC1 [CBK307380] | 72.7207
COc1cc(/C=N/NC(=O)c2ccncc2)ccc1OCc1ccc(Cl)cc1 [CBK262454] | 90.891
COc1ccc(OCCNC(=O)c2cc(Br)cnc2N2CCOCC2)cc1 [CBK076214] | 101.893
O=C(C1=C(O)C(=O)N(Cc2cccnc2)C1c1cccnc1)c1cccs1 (stereo not drawn) [CBK264547] | 112.936
C#CCOC(=O)NC(=O)c1csnn1 [CBK006685] | 75.1422
COc1ccc([C@@]23CC[C@@H](NC(=O)Nc4ccc(C)c(F)c4F)C[C@@H]2N(C)CC3)cc1OC [CBK073686T] | 92.5983
COc1cccc2cc(-c3cncn3CCCC(C)(C)CO)oc12 [CBK281817] | 89.0379
Cc1csc2c(C3CCN(C(=O)c4ccnn4C)CC3)nc(C)n12 [CBK285249] | 87.6424
CC(C)(C)c1nsc(NC2CCCCCC2)n1 [CBK075061] | 94.5642
O=C(Nc1cccc(CCc2ccccn2)c1)c1ccc([N+](=O)[O-])cc1 [CBK269653] | 91.7179
c1csc(COc2nccnc2-c2ccsc2)c1 [CBK106770] | 97.6462
O=C(NC1Cc2ccccc2C1)c1ccno1 [CBK200358] | 104.518
O=C(CCNS(=O)(=O)c1ccccc1Cl)N1CCN(C(=O)C2CC2)CC1 [CBK306025] | 67.9196
CS(=O)(=O)N(CC(=O)NCc1ccccn1)c1ccc2c(c1)OCO2 [CBK269385] | 82.4701
CCC(O)CN1CCCC(c2nc3cc(C)ccc3[nH]2)C1 (stereo not drawn) [CBK304854] | 73.0946
C(=C\c1ccccc1)/CN1CCN(CCc2ccccc2)CC1 [CBK261893] | 87.8724
c1ccc(C(Nc2ncc(-c3cnccn3)c(-c3ccco3)n2)c2ccccc2)cc1 [CBK286413] | 99.5996
S=C(NCCC(c1ccccc1)c1ccccc1)Nc1ccc(Cl)c(Cl)c1 [CBK263972] | 78.7807
COCCCN(Cc1cc(F)cc(F)c1)Cc1ccccn1 [CBK282975] | 94.2499
CC(C)c1ccc(S(=O)(=O)Nc2ccc(OC(F)F)cc2)cc1 [CBK044565] | 76.5852
Cc1ccc(O)c(NC(=O)Cn2nc([N+](=O)[O-])c(Br)c2C)c1 [CBK261718] | 99.2696
CCCn1cc(S(=O)(=O)N2CCCC2c2ccc(Nc3cccc(C)n3)cn2)c(C)n1 (stereo not drawn) [CBK286258] | 113.586
CS(=O)(=O)c1ccc(-c2ccc(C(=O)NCc3cccc(C(F)(F)F)c3)cn2)cc1 [CBK158874] | 75.2553
Cc1cc(O)cc(C2CCCN(C(=O)c3cccc(F)c3)C2)n1 (stereo not drawn) [CBK283440] | 71.308

SMILES | % of control remaining
S=C(NCC1CCCCC1)Nc1ncc(Cl)cc1Cl [CBK067053] | 93.0481
CN(C(=O)CN1CCCCC1Cn1cccn1)C1(C#N)CCCCC1 (stereo not drawn) [CBK305412] | 118.72
O=C(O)C1CCN(S(=O)(=O)c2ccccc2[N+](=O)[O-])CC1 [CBK265267] | 108.022
CN(C)[C@@H]1CN(Cc2ccccc2O)C[C@H]1c1cn(C)c2ccccc12 [CBK284895] | 97.6368
COc1cc(C(=O)N2CCCC3(CCN(C(=O)c4ccoc4)C3)C2)cc(OC)c1OC (stereo not drawn) [CBK131637] | 80.1989
O=C(NCc1csc2c1CCCC2)N1CC(c2ccccn2)C1 [CBK307499] | 79.2767
Nn1c(=O)c2ccccc2n2c(SCC(=O)N(c3ccccc3)c3ccccc3)nnc12 [CBK266621] | 130.297
COc1cc(OC)c(C(C)=O)c(OCCOc2nccnc2N2CCNCC2)c1 [CBK013497T] | 100.698
CN(C)C(=O)c1cc(-c2ccccc2)cnc1N(C)S(C)(=O)=O [CBK076473] | 90.9522
CCCC(=O)Nc1ccc(N2CCNCC2)c2ccccc12 [CBK024619T] | 103.109
CC(CC(=O)NC1(C#Cc2nccs2)CCCCC1)n1ccnc1 (stereo not drawn) [CBK284746] | 64.3609
CC(C)(C)NC(=O)CN1CCN(C(=O)CSc2n[nH]c(=O)n2C2CC2)CC1 [CBK295641] | 78.1234
Fc1ccc(-c2noc([C@@H]3CCCN3Cc3ncc[nH]3)n2)nc1 [CBK288897] | 86.8939
CCOC(=O)c1c(NC(=O)c2cc(-c3ccc(Cl)s3)nc3ccccc23)sc(C)c1CC [CBK262657] | 102.845
O=C1NC/C=C/CC2(CCN(Cc3ccc(Cl)cn3)CC2)C(=O)NCCOc2ccccc21 [CBK292008] | 101.762
O=C(Nc1cc(Oc2cncc(Cl)c2)cc([N+](=O)[O-])c1)c1nn2c(C(F)(F)F)cc(-c3cccs3)nc2c1Cl [CBK262585] | 80.9629
CCn1c(C)nc2cc(NC(=O)Cn3cnc4ccccc43)ccc21 [CBK281832] | 96.8262
Cc1nn(CCC#N)c2nc(-c3ccc(F)cc3)cc(C(=O)O)c12 [CBK296974] | 100.688
Cc1c(C(=O)N2CCCCC2C(N)=O)nnn1Cc1ccc(F)cc1F (stereo not drawn) [CBK304425] | 52.2077
COCCN1CCN(c2cncc(-c3ccc(O)cc3)n2)CC1 [CBK126951T] | 133.727
CC1(C)Cc2c(cnn2-c2ccc(F)cc2)C(N)C1 (stereo not drawn) [CBK288200] | 56.201
Cc1ccc(-c2csc(CC#N)n2)cc1 [CBK047576] | 68.7533
O=C(CC(CN1CCN(CC(=O)N2CCCC2)CC1)C(=O)O)Nc1ccccc1 (stereo not drawn) [CBK286844] | 80.2724
O=C(NCc1cccnc1OCC(F)(F)F)c1ccc(=O)[nH]n1 [CBK305578] | 78.7355
CC(C)(CO)Cn1c(=O)[nH]c2ncc(-c3ccc(C(N)=O)cc3)nc21 [CBK064787] | 123.662
